The results in this text go back to patent US20250295648A1 (priority 2024, published 2025).

For the data set, the system named is patients with moderate to severe L-DOPA-induced dyskinesia (LID) in Parkinson's disease. In words: Phase 2a study: ECG, vital signs, safety laboratory, physical examination, C-SSRS. It is filed as in vivo.

For the compound `Cc1ccc(CNCC2(F)CCN(C(=O)c3ccc(F)c(Cl)c3)CC2)nc1` [NLX-112, (3-chloro-4-fluoro-phenyl)-[4-fluoro-4-{[(5-methyl-pyridin-2-ylmethyl)-amino]-methyl}piperidin-1-yl]methanone], the “abnormal vital signs assessed as clinically significant: patients n” value (N=18) is reported as 2. For the same compound, the “ECG: HR, PR, QRS, QT, QTc measures” value (any post-baseline visit) is reported as “no changes”. For the same compound, for the setting “in vivo”, the “suicidal ideation/behavior (C-SSRS)” value is “no indication of increased suicidal ideation/behavior” and the “vital signs: HR, BP, body temperature” value is on record as “no changes”. For the same compound, the “clinical chemistry, hematology, urinalysis, coagulation parameters” value (laboratory assessments) is given as “no clinically significant changes”. For the setting “one or more occasions, N=18”, the “abnormal vital signs assessed as not clinically significant: patients %” value is 67% and the “abnormal vital signs assessed as not clinically significant: patients n” value is given as 12. Under “out of 18 patients”, the “occurrences of orthostatic hypotension on one or more occasions: patients n” value is on record as 13.
